# The supplement of paper PMC3334620
# Over roughly 33,000 sequences, “E-score (-0.5 to 0.5)” has its median near -0.035; the highest 2% begin near 0.34. The list shows a part of the results.
# Target: T1, Mot3 (UniProt P54785)
# T1 sequence: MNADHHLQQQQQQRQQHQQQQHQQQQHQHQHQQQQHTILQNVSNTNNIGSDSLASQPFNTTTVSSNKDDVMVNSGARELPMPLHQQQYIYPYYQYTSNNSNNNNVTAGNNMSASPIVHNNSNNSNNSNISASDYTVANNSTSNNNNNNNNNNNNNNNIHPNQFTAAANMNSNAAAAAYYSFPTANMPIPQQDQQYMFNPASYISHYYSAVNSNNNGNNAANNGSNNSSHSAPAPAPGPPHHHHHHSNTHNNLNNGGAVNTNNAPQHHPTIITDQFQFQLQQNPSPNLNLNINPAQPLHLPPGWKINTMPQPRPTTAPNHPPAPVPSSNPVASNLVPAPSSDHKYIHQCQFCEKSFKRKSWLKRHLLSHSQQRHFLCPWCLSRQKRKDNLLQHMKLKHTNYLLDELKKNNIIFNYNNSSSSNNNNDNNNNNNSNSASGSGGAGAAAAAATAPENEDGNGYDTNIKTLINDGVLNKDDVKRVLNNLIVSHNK
# Test: PBM E-score (8-mer binding enrichment) (E-score (-0.5 to 0.5)); higher = stronger / more preferred TF binding; most listed sequences are background and not binding sites
# Conditions: protein concentration: 200 nM; construct: GST-full length
# Procedure, shortened: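 GST-tagged yeast TFs (full-length or DNA-binding domain) were made by PURExpress in vitro transcription/translation and applied at about 100-200 nM to universal all-10-mer Agilent arrays. The arrays were made double-stranded by primer extension, on fresh or once-stripped slides. Bound protein was detected with fluorescent anti-GST, and scans were normalised with masliner. Each ungapped eight-base word, pooled with its reverse complement, received an E-score (modified Wilcoxon-Mann-Whitney statistic) from the Universal PBM Analysis Suite.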
row,Sequence,PBM E-score
1,GGACCCAA,-0.229
2,GCTATTCA,0.0045
3,AGTCCGGG,-0.146
4,CTGCCTAC,0.264
5,CGTCGCCA,-0.205
6,ATCCAGGG,-0.281
7,ATAAATTG,0.139
8,GCTTTAAC,0.135
9,ATTGATTG,-0.027
10,AAAACGTA,0.21
11,CGTTCACC,-0.129
12,CTAGGATA,0.0667
13,ACGCTATG,-0.00824
14,CCATTCCC,-0.207
15,CGTGAACG,-0.296
16,GACTTTGC,-0.157
17,GACGGATC,-0.168
18,AATACGTG,0.259
19,AGTATCTC,0.0112
20,AAAACATA,0.314
21,ACTCGCCC,-0.179
22,GGCTCAAA,-0.194
23,CCAACCTC,-0.0519
24,AGACCAAC,-0.0934
25,CAAGGATG,0.121

row,Sequence,PBM E-score
1,CTTGGCGA,-0.105
2,AAGAGCTA,0.162
3,GCGATCAC,-0.121
4,AAAAATAT,0.0422
5,AAGAAACC,-0.00868
6,ACCATCGA,-0.00045
7,GTCAGCAA,0.0755
8,AGCCATTA,0.0474
9,TGACATCA,0.12
10,ACACGTTC,0.303
11,AATGCCGG,-0.122
12,TAATTAGA,0.0891
13,CCTGGAGC,-0.105
14,ACTATTAC,0.25
15,TATAACCA,-0.0522
16,CTAAAGTC,-0.0489
17,CTACATAA,0.228
18,GTTGCAAC,0.149
19,CATAGGCC,0.135
20,ACGGCCGG,-0.242
21,AATCTTGC,0.0579
22,TAAGCGAA,0.248
23,ACATTTGA,0.174
24,ACTGGAGA,-0.245
25,ATCACAAG,0.041

row,Sequence,PBM E-score
1,TCGATCCA,-0.00449
2,ATGCGCGA,-0.2
3,AAAGACCC,-0.119
4,ATCAGCAA,-0.218
5,ATGCTTGA,-0.0785
6,CTATGAAC,0.2
7,GAAGGCTA,0.0397
8,CGGATCCA,-0.223
9,AGTAGTCA,0.141
10,AACACCAC,0.0497
11,GCTGAAAA,0.0515
12,CACGACAA,0.125
13,CTCCCCTC,-0.126
14,AAGTACAA,0.202
15,ATCCGATA,0.00354
16,GGGTATCA,-0.174
17,AGAGGACT,-0.206
18,AGGTTTAC,0.14
19,CTCCCGGA,-0.334
20,AAGATGCG,-0.0702
21,GACGTGTA,0.318
22,AACACGAA,0.33
23,CTGAGAAA,0.0648
24,CTCTTTTC,-0.0275
25,AGGATTAG,0.0689

row,Sequence,PBM E-score
1,CCGGGACA,-0.112
2,GCTGTACC,-0.0581
3,AAGGTGCG,-0.0516
4,GGTCGTAA,0.0727
5,CGCACGCC,-0.103
6,ACTCTCTG,-0.169
7,ATTTGTTC,0.204
8,AGCTTACC,-0.148
9,GAGGTGAC,-0.0345
10,CCATCATA,-0.128
11,ACGTCACG,0.157
12,CGGAATGC,-0.151
13,AATGGCCC,-0.232
14,AATAACCT,0.0798
15,ACATTCAA,-0.103
16,AGGCATAC,0.288
17,GAGTGTCC,-0.136
18,AACGAGGG,0.0775
19,CTTATCTC,-0.208
20,CAGACCTG,-0.25
21,ACTCAGAA,0.0722
22,AGGTTAAT,0.0834
23,AAAGCAGT,-0.00102
24,GAGACAAC,-0.063
25,AACGGTCC,-0.201

row,Sequence,PBM E-score
1,AAACAAGC,0.0864
2,ACCTGCCC,-0.0694
3,AATGCCAA,-0.0336
4,CGCTCACC,-0.292
5,AGCACCTG,0.0863
6,GCTATACC,-0.0382
7,GACATCGA,-0.0937
8,ATCGAGGA,-0.102
9,CGCACCGC,-0.118
10,ATGTATTA,0.33
11,AACTCTTA,0.12
12,GGCCCGAC,-0.19
13,AAGCTACC,-0.124
14,TACTCGCA,-0.0684
15,ACACTCAA,0.186
16,GTTACGGA,-0.0574
17,AATAAATT,0.0734
18,TGCTATAA,-0.0679
19,AAGGGGAC,-0.173
20,ACATGCGC,0.251
21,ATCTACAA,0.205
22,GTAATCTA,0.265
23,CACCATGG,-0.0498
24,ACGCGCTC,0.115
25,AGCCTAAA,0.178

row,Sequence,PBM E-score
1,ATCAGGTA,0.256
2,CCCTGTCG,0.0848
3,CACATGCA,0.153
4,ATAGTGAG,-0.0627
5,AAGTGGAC,-0.28
6,ATAGAGAC,-0.144
7,ATACAGAC,0.0425
8,CGAGTAGC,-0.131
9,GTAAGTAA,0.169
10,GAGATAAC,0.115
11,GTAGATCA,0.122
12,ATCAGGAG,0.00236
13,AGCGCCAC,-0.3
14,ACTTAACC,0.118
15,GAGCTCCC,-0.149
16,TGAAGTAA,-0.00559
17,AAAAGATC,-0.0143
18,TACCTGGA,0.178
19,CGGCGACC,-0.34
20,AGCTTCAC,-0.0585
21,CTTATTCC,-0.194
22,CGTTCGTC,-0.0385
23,ATAGTGGA,0.171
24,CATCGTGA,-0.0523
25,CTTTAGCC,-0.0668

row,Sequence,PBM E-score
1,GGCCCCTA,-0.12
2,CTGTGAAC,0.0791
3,CCCTTATC,0.00197
4,TAGGTCGA,-0.073
5,ATCAATAC,0.224
6,GAGATGCC,-0.0239
7,GACAACGA,0.00028
8,ACTCACTA,0.0736
9,ATCGGCAG,-0.16
10,ACAAACGG,0.0362
11,AGAGCTCC,-0.224
12,GTAGGCTA,0.226
13,ATACAACA,0.216
14,CGTGAAGC,-0.266
15,TGAGGAAA,0.0921
16,ACCAACGT,0.122
17,AAGAGTAG,0.0291
18,ACATTCGC,0.0874
19,AAGCGCGT,0.146
20,AAGTGGGT,-0.0924
21,AGTTTCAG,-0.0348
22,ACCGGTCT,-0.283
